The list shows a part of the results. Cut-off read from the data, not from the text of the source: active = 3.2 or more and inactive = the rest. Most of these values are background signal.
How the values were obtained:
Test in all cases: enrichment score (SH2-bound / input frequency) (ratio); bacterial display of known human phosphotyrosine sites (pTyr-Var adds point mutants) read by sequencing; higher = stronger binding; tyrosines were phosphorylated by kinases first
Conditions in all cases: peptide library: Human pTyr
SHP2 C-SH2 domain E139D = target: SHP2 C-SH2 domain E139D
[1] = target: SHP2 C-SH2 domain wild-type
SHP2 N-SH2 domain L43F = target: SHP2 N-SH2 domain L43F
SHP2 N-SH2 domain T42A = target: SHP2 N-SH2 domain T42A
SHP2 N-SH2 domain T52S = target: SHP2 N-SH2 domain T52S
[2] = target: SHP2 N-SH2 domain wild-type

Measured: enrichment score
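Note: displayed peptides selected on beads carrying the immobilized SH2 domain, with library peptides lacking any tyrosine serving as negative controls.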

DEVIITGYCQGDGAR [FAAA_HUMAN_395_YA]
inactive: SHP2 C-SH2 domain E139D 1.16 | [1] 1.14 | SHP2 N-SH2 domain L43F 1.02 | SHP2 N-SH2 domain T42A 1.44 | SHP2 N-SH2 domain T52S 1.24 | [2] 1.42

SVSETDDYAEIIDEE [FAK1_HUMAN_397]
inactive: SHP2 C-SH2 domain E139D 1.4 | [1] 1.31 | SHP2 N-SH2 domain L43F 1.15 | SHP2 N-SH2 domain T42A 1.18 | SHP2 N-SH2 domain T52S 1.33 | [2] 2.09

IIDEEDTYTMPSTRD [FAK1_HUMAN_407]
inactive: SHP2 C-SH2 domain E139D 0.827 | [1] 0.844 | SHP2 N-SH2 domain L43F 0.912 | SHP2 N-SH2 domain T42A 0.739 | SHP2 N-SH2 domain T52S 0.846 | [2] 0.962

GDFGLSRYMEDSTYY [FAK1_HUMAN_570]
inactive: SHP2 C-SH2 domain E139D 0.879 | [1] 0.802 | SHP2 N-SH2 domain L43F 0.681 | SHP2 N-SH2 domain T42A 0.663 | SHP2 N-SH2 domain T52S 0.736 | [2] 0.693

GDFGLSRYMEDSTAA [FAK1_HUMAN_570_YA]
inactive: SHP2 C-SH2 domain E139D 0.615 | [1] 0.61 | SHP2 N-SH2 domain L43F 0.682 | SHP2 N-SH2 domain T42A 0.618 | SHP2 N-SH2 domain T52S 0.653 | [2] 0.599

YMEDSTYYKASKGKL [FAK1_HUMAN_577]
inactive: SHP2 C-SH2 domain E139D 0.871 | [1] 0.758 | SHP2 N-SH2 domain L43F 1.06 | SHP2 N-SH2 domain T42A 0.764 | SHP2 N-SH2 domain T52S 0.703 | [2] 1.11

AMEDSTAYKASKGKL [FAK1_HUMAN_577_YA]
inactive: SHP2 C-SH2 domain E139D 0.998 | [1] 0.769 | SHP2 N-SH2 domain L43F 1 | SHP2 N-SH2 domain T42A 0.74 | SHP2 N-SH2 domain T52S 1.05 | [2] 0.82

DRSNDKVYENVTGLV [FAK1_HUMAN_925]
inactive: SHP2 C-SH2 domain E139D 1.12 | [1] 0.86 | SHP2 N-SH2 domain L43F 0.942 | SHP2 N-SH2 domain T42A 0.911 | SHP2 N-SH2 domain T52S 0.856 | [2] 0.9

YIEDEDYYKASVTRL [FAK2_HUMAN_580]
inactive: SHP2 C-SH2 domain E139D 0.945 | [1] 1.06 | SHP2 N-SH2 domain L43F 0.669 | SHP2 N-SH2 domain T42A 0.801 | SHP2 N-SH2 domain T52S 0.951 | [2] 0.76

DAESEGGYTTANAES [FAM82A2_HUMAN_176]
inactive: SHP2 C-SH2 domain E139D 0.939 | [1] 0.673 | SHP2 N-SH2 domain L43F 0.876 | SHP2 N-SH2 domain T42A 1.3 | SHP2 N-SH2 domain T52S 0.841 | [2] 0.814

KVPEDRVYEELNIYS [FCERB_HUMAN_219]
inactive: SHP2 C-SH2 domain E139D 0.77 | [1] 0.827 | SHP2 N-SH2 domain L43F 0.76 | SHP2 N-SH2 domain T42A 0.719 | SHP2 N-SH2 domain T52S 0.864 | [2] 0.734

KVPEDRVYEELNIAS [FCERB_HUMAN_219_YA]
inactive: SHP2 C-SH2 domain E139D 0.946 | [1] 0.837 | SHP2 N-SH2 domain L43F 0.802 | SHP2 N-SH2 domain T42A 0.85 | SHP2 N-SH2 domain T52S 0.897 | [2] 0.808

VYEELNIYSATYSEL [FCERB_HUMAN_225]
inactive: SHP2 C-SH2 domain E139D 1.78 | [1] 1.72 | SHP2 N-SH2 domain L43F 1.39 | SHP2 N-SH2 domain T42A 1.62 | SHP2 N-SH2 domain T52S 1.56 | [2] 2.11

AEKSDGVYTGLSTRN [FCERG_HUMAN_65_YA]
inactive: SHP2 C-SH2 domain E139D 0.703 | [1] 0.537 | SHP2 N-SH2 domain L43F 0.793 | SHP2 N-SH2 domain T42A 0.662 | SHP2 N-SH2 domain T52S 0.625 | [2] 0.922

AETADGGYMTLNPRA [FCG2A_HUMAN_288_YA]
inactive: SHP2 C-SH2 domain E139D 0.449 | [1] 0.475 | SHP2 N-SH2 domain L43F 0.554 | SHP2 N-SH2 domain T42A 0.443 | SHP2 N-SH2 domain T52S 0.383 | [2] 0.847

GAENTITYSLLMHPD [FCG2B_HUMAN_292]
active: SHP2 C-SH2 domain E139D 7.77 | [1] 11.6 | SHP2 N-SH2 domain L43F 8.09 | SHP2 N-SH2 domain T42A 12.2 | SHP2 N-SH2 domain T52S 4.81
inactive: [2] 1.62

GKDEGVVYSVVHRTS [FCRL6_HUMAN_371]
inactive: SHP2 N-SH2 domain L43F 0.626 | SHP2 N-SH2 domain T42A 1.04 | SHP2 N-SH2 domain T52S 0.744 | [2] 0.598
active: SHP2 C-SH2 domain E139D 3.96 | [1] 7.84

MLAGVSEYELPEDPR [FGFR1_HUMAN_463]
inactive: SHP2 C-SH2 domain E139D 0.691 | [1] 0.598 | SHP2 N-SH2 domain L43F 0.676 | SHP2 N-SH2 domain T42A 0.75 | SHP2 N-SH2 domain T52S 0.664 | [2] 0.789

MLAGVSEYELPEDPK [FGFR2_HUMAN_466]
inactive: SHP2 C-SH2 domain E139D 0.819 | [1] 0.637 | SHP2 N-SH2 domain L43F 0.601 | SHP2 N-SH2 domain T42A 0.62 | SHP2 N-SH2 domain T52S 0.803 | [2] 0.858

TSSLPEGYYEEAVPL [AFAP1_HUMAN_93]
inactive: SHP2 C-SH2 domain E139D 0.85 | [1] 0.69 | SHP2 N-SH2 domain L43F 0.758 | SHP2 N-SH2 domain T42A 0.657 | SHP2 N-SH2 domain T52S 0.786 | [2] 0.702

DVHNLDYYKKTTNGR [FGFR3_HUMAN_648]
inactive: SHP2 C-SH2 domain E139D 0.584 | [1] 0.984 | SHP2 N-SH2 domain L43F 0.657 | SHP2 N-SH2 domain T42A 0.726 | SHP2 N-SH2 domain T52S 1.15 | [2] 0.671

DVHNLDAYKKTTNGR [FGFR3_HUMAN_648_YA]
inactive: SHP2 C-SH2 domain E139D 0.828 | [1] 0.831 | SHP2 N-SH2 domain L43F 0.89 | SHP2 N-SH2 domain T42A 0.763 | SHP2 N-SH2 domain T52S 0.77 | [2] 0.656

ANCTHDLYMIMRECW [FGFR3_HUMAN_724]
inactive: SHP2 C-SH2 domain E139D 1.35 | [1] 1.65 | SHP2 N-SH2 domain L43F 1.54 | SHP2 N-SH2 domain T42A 1.53 | SHP2 N-SH2 domain T52S 2.09 | [2] 2.16

TVTSTDEYLDLSAPF [FGFR3_HUMAN_760]
inactive: SHP2 C-SH2 domain E139D 0.656 | [1] 0.572 | SHP2 N-SH2 domain L43F 0.501 | SHP2 N-SH2 domain T42A 0.723 | SHP2 N-SH2 domain T52S 0.531 | [2] 0.568

GVHHIDYYKKTSNGR [FGFR4_HUMAN_643]
inactive: SHP2 C-SH2 domain E139D 1.32 | [1] 1.21 | SHP2 N-SH2 domain L43F 0.94 | SHP2 N-SH2 domain T42A 1.01 | SHP2 N-SH2 domain T52S 0.83 | [2] 0.995

GVHHIDAYKKTSNGR [FGFR4_HUMAN_643_YA]
inactive: SHP2 C-SH2 domain E139D 0.821 | [1] 0.849 | SHP2 N-SH2 domain L43F 1.11 | SHP2 N-SH2 domain T42A 0.811 | SHP2 N-SH2 domain T52S 0.847 | [2] 0.809

SAGAADHYGPDPTKA [FGR_HUMAN_34_YA]
inactive: SHP2 C-SH2 domain E139D 0.643 | [1] 0.47 | SHP2 N-SH2 domain L43F 0.501 | SHP2 N-SH2 domain T42A 0.612 | SHP2 N-SH2 domain T52S 0.633 | [2] 0.818

FTSAEPQYQPGDQTG [FGR_HUMAN_523]
inactive: SHP2 C-SH2 domain E139D 0.674 | [1] 0.463 | SHP2 N-SH2 domain L43F 0.533 | SHP2 N-SH2 domain T42A 0.621 | SHP2 N-SH2 domain T52S 0.566 | [2] 0.521

IKTGAPQYGSYGTAP [FIP1L1_HUMAN_110]
inactive: SHP2 C-SH2 domain E139D 2.14 | [1] 0.75 | SHP2 N-SH2 domain L43F 0.925 | SHP2 N-SH2 domain T42A 0.807 | SHP2 N-SH2 domain T52S 0.67 | [2] 0.692

MGISVVSYTLKDIHD [FLOT1_HUMAN_149]
active: SHP2 N-SH2 domain L43F 14.1 | SHP2 N-SH2 domain T52S 9.57
inactive: SHP2 C-SH2 domain E139D 1.13 | [1] 1.18 | SHP2 N-SH2 domain T42A 1.15 | [2] 3.08

SSDNEYFYVDFREYE [FLT3_HUMAN_591]
inactive: SHP2 C-SH2 domain E139D 2.02 | [1] 1.43 | SHP2 N-SH2 domain L43F 1.51 | SHP2 N-SH2 domain T42A 1.38 | SHP2 N-SH2 domain T52S 1.87 | [2] 1.77

VDFREYEYDLKWEFP [FLT3_HUMAN_599]
inactive: SHP2 C-SH2 domain E139D 1.21 | [1] 1.53 | SHP2 N-SH2 domain L43F 1.19 | SHP2 N-SH2 domain T42A 1.29 | SHP2 N-SH2 domain T52S 1.72 | [2] 1.83

ADAEEAMYQNVDGRV [FLT3_HUMAN_955]
inactive: SHP2 C-SH2 domain E139D 0.796 | [1] 0.65 | SHP2 N-SH2 domain L43F 0.779 | SHP2 N-SH2 domain T42A 0.611 | SHP2 N-SH2 domain T52S 0.622 | [2] 0.908

EEGRASIYKSVIINT [FMO5_HUMAN_56]
inactive: SHP2 C-SH2 domain E139D 0.918 | [1] 0.9 | SHP2 N-SH2 domain L43F 0.737 | SHP2 N-SH2 domain T42A 0.804 | SHP2 N-SH2 domain T52S 0.951 | [2] 0.734

ARRQSGLYDSQNPPT [FNBP1_HUMAN_500]
inactive: SHP2 C-SH2 domain E139D 0.681 | [1] 0.699 | SHP2 N-SH2 domain L43F 0.621 | SHP2 N-SH2 domain T42A 0.653 | SHP2 N-SH2 domain T52S 0.697 | [2] 0.62

GTGEDDDYVDDFNST [FR1OP_HUMAN_337]
inactive: SHP2 C-SH2 domain E139D 1.06 | [1] 1.03 | SHP2 N-SH2 domain L43F 1.09 | SHP2 N-SH2 domain T42A 1.1 | SHP2 N-SH2 domain T52S 1.37 | [2] 1.47
